Data as given in a collection of fitness landscapes (doi:10.1126/science.1257360).
The list shows a part of the results.

B1: PhoQ; a variant is named by its letters at X, in order, P23837 (parent)
chain: MKKLLRLFFPLSLRVRFLLATAAVVLVLSLAYGMVALIGYSVSFDKTTFRLLRGESNLFYTLAKWENNKLHVELPENIDKQSPTMTLIYDENGQLLWAQRDVPWLMKMIQPDWLKSNGFHEIEADVNDTSLLLSGDHSIQQQLQEVREDDDDAEMTHSVAVNVYPATSRMPKLTIVVVDTIPVELKSSYMVWSWFIYVLSANLLLVIPLLWVAAWWSLRPIEALAKEVRELEEHNRELLNPATTRELTSLVRNLNRLLKSERERYDKYRTTLTDLTHSLKTPLXXLQXXLRSLRSEKMSVSDAEPVMLEQISRISQQIGYYLHRASMRGGTLLSRELHPVAPLLDNLTSALNKVYQRKGVNISLDISPEISFVGEQNDFVEVMGNVLDNACKYCLEFVEISARQTDEHLYIVVEDDGPGIPLSKREVIFDRGQRVDTLRPGQGVGLAVAREITEQYEGKIVAGESMLGGARMEVIFGRQHSAPKDE

Variants of: B1
Test: enrichment ratio after two sorts for PhoP signalling (ratio (wild type AVST 3.29)); higher = more functional
Conditions: with PhoP (E. coli)

| Variant | enrichment ratio |
| --- | --- |
| FRHT | ≤ 0.25 |
| SAMK | 17.9 |
| WMRG | ≤ 0.25 |
| AFVC | 1.11 |
| DWDH | ≤ 0.25 |
| FWYN | ≤ 0.25 |
| FVLQ | 1.95 |
| DEAK | ≤ 0.25 |
| IPMR | ≤ 0.25 |
| ALVQ | 0.788 |
| SQFC | ≤ 0.25 |
| YSVT | ≤ 0.25 |
| LAFQ | 2.23 |
| GMYA | ≤ 0.25 |
| GSYE | ≤ 0.25 |
| KGCM | ≤ 0.25 |
| KLYP | ≤ 0.25 |
| WMLV | ≤ 0.25 |
| HFLS | ≤ 0.25 |
| AQEY | ≤ 0.25 |
| RRKD | ≤ 0.25 |
| WGGM | ≤ 0.25 |
| HWTY | ≤ 0.25 |
| YIGT | ≤ 0.25 |

| Variant | enrichment ratio |
| --- | --- |
| VRCI | ≤ 0.25 |
| QYDD | ≤ 0.25 |
| GGFQ | ≤ 0.25 |
| KCHT | ≤ 0.25 |
| PICW | ≤ 0.25 |
| SFNT | ≤ 0.25 |
| KYQS | ≤ 0.25 |
| WFMA | ≤ 0.25 |
| DPSR | ≤ 0.25 |
| FHMI | ≤ 0.25 |
| IAWV | ≤ 0.25 |
| GMTF | 2.5 |
| RDPH | ≤ 0.25 |
| IFEM | 3.66 |
| YIRY | ≤ 0.25 |
| YNWV | ≤ 0.25 |
| YTPE | ≤ 0.25 |
| QSAF | ≤ 0.25 |
| EDKD | ≤ 0.25 |
| QSIR | ≤ 0.25 |
| DKFE | ≤ 0.25 |
| PDHV | ≤ 0.25 |
| EFRW | ≤ 0.25 |
| QCAG | ≤ 0.25 |

| Variant | enrichment ratio |
| --- | --- |
| PFNS | ≤ 0.25 |
| IPKW | ≤ 0.25 |
| YDAT | ≤ 0.25 |
| EICP | ≤ 0.25 |
| KVIL | ≤ 0.25 |
| TNNG | ≤ 0.25 |
| RNVE | ≤ 0.25 |
| HYLL | ≤ 0.25 |
| YPYN | ≤ 0.25 |
| VLCR | ≤ 0.25 |
| IWLD | ≤ 0.25 |
| HNWC | ≤ 0.25 |
| KRSY | ≤ 0.25 |
| NAGR | ≤ 0.25 |
| FWGH | ≤ 0.25 |
| LCYQ | ≤ 0.25 |
| RYAD | ≤ 0.25 |
| RNFC | ≤ 0.25 |
| DGRG | ≤ 0.25 |
| NESA | ≤ 0.25 |
| MAFD | ≤ 0.25 |
| LEMS | 8.78 |
| LCLC | ≤ 0.25 |
| MLDM | ≤ 0.25 |

| Variant | enrichment ratio |
| --- | --- |
| ETVK | ≤ 0.25 |
| QYHG | ≤ 0.25 |
| NTNM | ≤ 0.25 |
| NQWW | ≤ 0.25 |
| LWQG | ≤ 0.25 |
| HNPW | ≤ 0.25 |
| RGYG | ≤ 0.25 |
| TIQE | 15.1 |
| LHIM | ≤ 0.25 |
| NTHF | 0.486 |
| SKDP | ≤ 0.25 |
| LMNM | ≤ 0.25 |
| VAFP | ≤ 0.25 |
| MMLC | ≤ 0.25 |
| HMTG | ≤ 0.25 |
| RGNR | ≤ 0.25 |
| FFQC | ≤ 0.25 |
| DERR | ≤ 0.25 |
| HIAH | ≤ 0.25 |
| YPLW | ≤ 0.25 |
| QYWS | ≤ 0.25 |
| LQLP | ≤ 0.25 |
| NLVV | ≤ 0.25 |
| VTLH | 1.22 |

| Variant | enrichment ratio |
| --- | --- |
| IVMM | ≤ 0.25 |
| AYFP | ≤ 0.25 |
| DMSF | ≤ 0.25 |
| AVSQ | 14.8 |
| FDCI | ≤ 0.25 |
| VIHQ | ≤ 0.25 |
| SDEI | ≤ 0.25 |
| WESK | ≤ 0.25 |
| KEVH | ≤ 0.25 |
| VRCQ | ≤ 0.25 |
| SKAS | 7.22 |
| GHYC | ≤ 0.25 |
| KLNF | ≤ 0.25 |
| YLWI | ≤ 0.25 |
| SSGN | 2.51 |
| NPTK | ≤ 0.25 |
| QKFS | ≤ 0.25 |
| TQHV | 5.45 |
| YTWH | ≤ 0.25 |
| RTPM | ≤ 0.25 |
| RPCL | ≤ 0.25 |
| VECE | ≤ 0.25 |
| RGSW | ≤ 0.25 |
| WESP | ≤ 0.25 |

| Variant | enrichment ratio |
| --- | --- |
| DTSI | ≤ 0.25 |
| MNAT | 6.83 |
| FCAW | ≤ 0.25 |
| WRYG | ≤ 0.25 |
| SKCH | 9.88 |
| GFST | ≤ 0.25 |
| VYSE | ≤ 0.25 |
| IFMR | ≤ 0.25 |
| EAVW | ≤ 0.25 |
| AEWV | ≤ 0.25 |
| HAIN | ≤ 0.25 |
| VGYD | ≤ 0.25 |
| TQMN | ≤ 0.25 |
| QSVA | ≤ 0.25 |
| YGCS | ≤ 0.25 |
| GYKP | ≤ 0.25 |
| RRFA | ≤ 0.25 |
| PGTL | ≤ 0.25 |
| ECPA | ≤ 0.25 |
| VTLD | ≤ 0.25 |
| PLWD | ≤ 0.25 |
| ERQR | ≤ 0.25 |
| IAEQ | ≤ 0.25 |
| VCVR | ≤ 0.25 |

| Variant | enrichment ratio |
| --- | --- |
| PETF | ≤ 0.25 |
| YTFE | ≤ 0.25 |
| NEND | ≤ 0.25 |
| QWAV | ≤ 0.25 |
| LIWM | ≤ 0.25 |
| KLIF | ≤ 0.25 |
| SCDA | ≤ 0.25 |
| PKKR | ≤ 0.25 |
| NFIG | ≤ 0.25 |
| RNWF | ≤ 0.25 |
| LSCH | ≤ 0.25 |
| FNED | ≤ 0.25 |
| VYLV | ≤ 0.25 |
| GTIG | 1.96 |
| DPAM | ≤ 0.25 |
| HRSI | ≤ 0.25 |
| STMP | ≤ 0.25 |
| PNQT | ≤ 0.25 |
| HFMT | ≤ 0.25 |
| KNYK | ≤ 0.25 |
| RWRS | ≤ 0.25 |
| HDSW | ≤ 0.25 |
| MPKS | ≤ 0.25 |
| KQNL | ≤ 0.25 |

| Variant | enrichment ratio |
| --- | --- |
| QMVV | ≤ 0.25 |
| YWSI | ≤ 0.25 |
| QMPM | ≤ 0.25 |
| WQVC | ≤ 0.25 |
| FPCH | ≤ 0.25 |
| ASAN | 6.39 |
| VPGG | ≤ 0.25 |
| YCSC | ≤ 0.25 |
| AVIS | 0.697 |
| GCRS | ≤ 0.25 |
| APKH | ≤ 0.25 |
| QLNP | ≤ 0.25 |
| ALTP | ≤ 0.25 |
| KFRQ | ≤ 0.25 |
| HTHK | ≤ 0.25 |
| FTFR | ≤ 0.25 |
| GHPP | ≤ 0.25 |
| DQSQ | ≤ 0.25 |
| AELG | 5.28 |
| YYAK | ≤ 0.25 |
| RAKT | ≤ 0.25 |
| NSVK | ≤ 0.25 |
| WMIF | ≤ 0.25 |
| NHGM | ≤ 0.25 |

| Variant | enrichment ratio |
| --- | --- |
| IIMH | ≤ 0.25 |
| SKEI | ≤ 0.25 |
| HHHP | ≤ 0.25 |
| WKEH | ≤ 0.25 |
| EYVE | ≤ 0.25 |
| IPWW | ≤ 0.25 |
| VVDD | ≤ 0.25 |
| YIRD | ≤ 0.25 |
| QVCP | ≤ 0.25 |
| KIHY | ≤ 0.25 |
| NQVL | ≤ 0.25 |
| GPFG | ≤ 0.25 |
| WLDL | ≤ 0.25 |
| DWSD | ≤ 0.25 |
| LKIP | ≤ 0.25 |
| IYGR | ≤ 0.25 |
| TEPS | ≤ 0.25 |
| ILFG | ≤ 0.25 |
| TEPW | ≤ 0.25 |
| YKNK | ≤ 0.25 |
| IMSE | ≤ 0.25 |
| YGKN | ≤ 0.25 |
| ILDA | ≤ 0.25 |
| SVAW | 5.54 |

| Variant | enrichment ratio |
| --- | --- |
| HGLN | ≤ 0.25 |
| YVFN | ≤ 0.25 |
| WTDS | ≤ 0.25 |
| IDQM | ≤ 0.25 |
| LHKI | ≤ 0.25 |
| ETAN | ≤ 0.25 |
| TYFK | ≤ 0.25 |
| RQYC | ≤ 0.25 |
| HGIY | ≤ 0.25 |
| VYRE | ≤ 0.25 |
| AHNP | ≤ 0.25 |
| TACA | 8.47 |
| FLLD | ≤ 0.25 |
| HGWS | ≤ 0.25 |
| PFAN | ≤ 0.25 |
| RKWI | ≤ 0.25 |
| NTMV | ≤ 0.25 |
| LAHY | ≤ 0.25 |
| LCGF | ≤ 0.25 |
| TCID | ≤ 0.25 |
| TNRI | ≤ 0.25 |
| TWPT | ≤ 0.25 |
| QGGA | ≤ 0.25 |
| GADV | ≤ 0.25 |

| Variant | enrichment ratio |
| --- | --- |
| GNYN | ≤ 0.25 |
| IGAW | ≤ 0.25 |
| EFYT | ≤ 0.25 |
| WMRQ | ≤ 0.25 |
| NCGL | 0.353 |
| DSII | ≤ 0.25 |
| IAWW | ≤ 0.25 |
| NGLC | 0.474 |
| QNMY | ≤ 0.25 |
| KGHK | ≤ 0.25 |
| MTAD | ≤ 0.25 |
| NYTT | ≤ 0.25 |
| HNNM | ≤ 0.25 |
| GERY | ≤ 0.25 |
| FFEE | ≤ 0.25 |
| KYCY | ≤ 0.25 |
| RQKG | ≤ 0.25 |
| QVFM | ≤ 0.25 |
| NKQH | ≤ 0.25 |
| SFQN | ≤ 0.25 |
| VCKV | ≤ 0.25 |
| KEHP | ≤ 0.25 |
| LDQW | ≤ 0.25 |
| MYWH | ≤ 0.25 |

| Variant | enrichment ratio |
| --- | --- |
| HNQR | ≤ 0.25 |
| WKTQ | ≤ 0.25 |
| TQAW | ≤ 0.25 |
| PNQR | ≤ 0.25 |
| WIVF | ≤ 0.25 |
| SNCA | 16.8 |
| MCYH | 1.48 |
| PVAK | ≤ 0.25 |
| VYYT | ≤ 0.25 |
| TKRY | ≤ 0.25 |
| PWQL | 0.791 |
| FWDK | ≤ 0.25 |
| SEEL | ≤ 0.25 |
| TYHY | 0.35 |
| VRRS | ≤ 0.25 |
| ARPL | ≤ 0.25 |
| LRQW | ≤ 0.25 |
| WMYY | ≤ 0.25 |
| TRME | ≤ 0.25 |
| PPGD | ≤ 0.25 |
| ELDY | ≤ 0.25 |
| RFNS | ≤ 0.25 |
| TSMV | 19.3 |
| KTQL | ≤ 0.25 |

| Variant | enrichment ratio |
| --- | --- |
| HNRW | ≤ 0.25 |
| MQVR | ≤ 0.25 |
| PMQW | ≤ 0.25 |
| YNPT | ≤ 0.25 |
| VFMV | ≤ 0.25 |
| SIIE | ≤ 0.25 |
| TEMS | 11.4 |
| FGGA | ≤ 0.25 |
| IDQA | ≤ 0.25 |
| PKFF | ≤ 0.25 |
| SHMI | 5.85 |
| SMHE | ≤ 0.25 |
| IGKA | ≤ 0.25 |
| SWPF | ≤ 0.25 |
| YDIK | ≤ 0.25 |
| SNPD | ≤ 0.25 |
| MPCG | ≤ 0.25 |
| YRQE | ≤ 0.25 |
